# Experimental data: PubChem BioAssay (NCATS)
# The other results are listed elsewhere or left out. Shown are side measurements of this screen, not its main read-out; they come without a call. The note in brackets gives the kind of curve behind each potency; many fits are weak.
# Assay: qHTS drug screen for cell cycle checkpoint inhibitors in PARPi-resistant BRCA-mutant ovarian cancer cell lines. (AID 1963452)
# Settings: PEO1/OlaR viability, CellTiter-Glo luminescence, 96 h; measured here: PEO1 parental viability
# Procedure, shortened: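 PEO1, PEO4 and PEO1/OlaR ovarian cancer cells, 600 per well, exposed 96 h at 37C to a dilution series. Viability read by CellTiter-Glo luminescence, normalized to DMSO and empty wells; activity summarized as Z-AUC.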
# Tags tell the direction and shape of the fitted curve.
row,Structure (SMILES),AC50
1,Cn1ncnc1[C@H]1c2n[nH]c(=O)c3cc(F)cc(c23)N[C@@H]1c1ccc(F)cc1,"0.0977 µM [falling, full curve]"
2,c1cc(Nc2cc(C3CC3)[nH]n2)nc(Nc2ccc3nc[nH]c3c2)n1,"0.219 µM [falling, full curve]"
3,C=CC(=O)N1CCC(C2CCNc3c(C(N)=O)c(-c4ccc(Oc5ccccc5)cc4)nn32)CC1 (stereo not given),"15.5 µM [falling, single point]"
4,Cc1ccc(Sc2ccccc2N2CCNCC2)c(C)c1,"15.5 µM [falling, partial curve]"
5,CCCc1cc(C)[nH]c(=O)c1CNC(=O)c1cc(-c2ccnc(N3CCN(C)CC3)c2)cc2c1cnn2C(C)C,"21.9 µM [falling, single point]"
6,COc1cccc(OCCCN)c1-c1cc(Nc2cnc(C#N)cn2)n[nH]1,"0.0123 µM [falling, full curve]"
7,COc1cc2c3c(n(CCCNCCO)c(=O)c2cc1OC)-c1cc2c(cc1C3=O)OCO2,"0.0069 µM [falling, full curve]"
8,C[C@@H]1CCNC(=O)c2cc3ccc(C(=O)Nc4nc5ccccc5n4CCCN(C)C)cc3n21,"24.5 µM [falling, single point]"
9,Cn1ncc(Cl)c1-c1cc(C(=O)N[C@H](CN)Cc2ccc(F)c(F)c2)sc1Cl,"17.4 µM [falling, partial curve]"
10,CCCc1cc(C)[nH]c(=O)c1CNC(=O)c1cc(-c2ccc(N3CCN(C(C)C)CC3)nc2)cc2c1cnn2C(C)C,"21.9 µM [falling, single point]"
